These results are taken from PubChem BioAssay (NCI).

The test relates to NCI-H322M lung. As to the kind of experiment: NCI anticancer screen, dose series, 48 h.

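Tested at 5 concentrations; 48 h exposure; 96-well plates; endpoints linearly interpolated, else capped at highest concentration. The concentration for 50% growth inhibition is given as GI50. TGI is the concentration that stops growth completely.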

Take `Cc1ccc2c(n1)C(=O)C(Cl)=C(Nc1ccc(C)c(C)c1)C2=O`: the GI50 is 4.51 µM and the TGI is 23.8 µM.
Take `CN(C)S(=O)(=O)c1ccc(-c2nc(C(Cl)Cl)nc3cc(-c4ccc(F)cc4)nn23)cc1`: the GI50 is 1.6 µM and the TGI is 4.84 µM.
